The campaign covered roughly 410,000 compounds. About 7,200 (1.8%) were called active. Inconclusive results, whose numbers are uncertain, are shown with a selection of clear calls. The call rests on the fitted dose curve; in most records, active means well fitted activation curve with a large enough effect; inconclusive means small, poorly fitted or top-dose-only effect, or another doubt; inactive means no such curve, though single readings can be large or run the other way. Potencies of inconclusive entries are left out as doubtful fits.
test: qHTS of TDP-43 Inhibitors; details: TDP-43 expressing yeast growth rescue, BacTiter-Glo, 24 h; growth rescue (activation): at 46.1 µM (top of the series) unless noted; further: nearly all actives have a fitted effect of over 50% in size; on growth rescue (activation): % of control where 0% means no effect
How it was run: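 Readout is BacTiter-Glo luminescence of cell growth, so inhibitors register as activators. TDP-43-expressing yeast at OD600=0.02 in galactose medium, after raffinose pregrowth to mid-log, were incubated with compound for 24 hr at 30 deg C.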
Potency means the concentration at half of the fitted maximal effect; tags describe the fitted curve by direction and shape.

Structure (SMILES)	Potency	growth rescue (activation)
O=C(Oc1cccc(-n2cnnn2)c1)c1ccccc1	inconclusive [activator, partial curve]	–
Cc1ccc2c(c1)C(=C(C#N)C#N)CCN2	inconclusive [activator, partial curve]	–
CNc1cncc(-c2ccc(OC)cc2)n1	inconclusive [activator, partial curve, poor fit]	–
COC(=O)c1ccc(C(=O)OC)c(NC(=O)CSc2cccc[n+]2[O-])c1	–	inconclusive: -82.8% [activator]
O=C(CCS(=O)(=O)c1ccc2c(c1)NC(=O)CS2)NCCc1ccc(Cl)cc1	inconclusive [activator, single point]	–
Cc1ccc(C)c(-c2ccc(=O)n(C(C)C(=O)Nc3ccccc3C(F)(F)F)n2)c1 (stereo unspecified)	inconclusive [activator, partial curve]	–
O=C(NCCCN1CCCC1)c1ccc2c(c1)N(Cc1ccc(F)cc1)C(=O)c1ccccc1S2=O (stereo unspecified)	inconclusive [activator, single point]	–
CCCCCSc1nnc(-c2ccccc2N)c(=O)[nH]1	inconclusive [activator, partial curve, poor fit]	–
N#Cc1ccc(-c2csc(-c3ccno3)n2)cc1	inconclusive [activator, partial curve]	–
C/C(=N\NC(=O)c1cc2ccccc2cc1O)c1ccccn1	inactive	–
COc1ccc(-c2cc(C(=O)N3CCN(c4cccc(C)c4C)CC3)c3ccccc3n2)cc1OC	inconclusive [activator, partial curve, poor fit]	–
CCOC(=O)C1CCCN(C(=O)c2ccc(C)c(NC(=O)c3nsc4ccccc34)c2)C1 (stereo unspecified)	inconclusive [activator, single point]	–
N#Cc1cccc(NC(=O)COC(=O)c2ccc[n+]([O-])c2)c1	inconclusive [activator, partial curve]	–
NC(=O)c1ccc(NC(=O)c2cc(S(=O)(=O)N3CCCCC3)ccc2N2CCOCC2)cc1	inactive	–
CCc1sc(C(=O)N2CCN(c3ncccn3)CC2)cc1Br	inconclusive [activator, partial curve]	–
Cc1cc(C(=O)OCC(=O)Nc2ccccc2C#N)c(C)o1	inconclusive [activator, partial curve]	–
O=C(CCc1ccccc1)Nc1ccccc1C(=O)NCc1ccco1	inconclusive [activator, single point]	–
O=C(Nc1ccccc1F)NC1CCCCCCC1	inconclusive [activator, partial curve]	–
Cc1cccc(NC(=O)CN2C(=O)S/C(=C\c3cc(C)n(C)c3C)C2=O)c1	inconclusive [activator, partial curve]	–
COc1ccc(CCNC(=O)COC(=O)c2ccc(C)s2)cc1	inconclusive [activator, single point]	–
CN1C(=O)/C(=C\c2ccncc2)SC1=Nc1ccccc1	inconclusive [activator, single point]	–
CCCCOC(=O)Nc1ccc(S(=O)(=O)Nc2ccc([N+](=O)[O-])cc2)cc1	inactive	–

Structure (SMILES)	Potency	growth rescue (activation)
Cc1ccccc1CC(=O)N1CCCc2ccccc21	inconclusive [activator, single point]	–
N#Cc1c(C(F)(F)F)cc(-c2ccccc2)nc1SCc1nc(N)nc(N2CCOCC2)n1	inconclusive [activator, partial curve]	–
Cc1cc2ccccc2cc(C)c1=O	inconclusive [activator, full curve, poor fit]	–
Cc1ccc(C)c(N(C(=O)c2nsc(Cl)c2Cl)C(C(=O)NC2CCCC2)c2ccc(O)cc2)c1 (stereo unspecified)	inconclusive [activator, single point]	–
COc1ccc(Oc2nc3c(c(=O)n(Cc4ccccc4Cl)c(=O)n3C)n2C)cc1	inactive	–
COC(=O)c1c(SCC(=O)Nc2ccccc2OC)[nH]c2ccccc2c1=O	inactive	–
CC1CCCN(c2nc(N(C)c3ccccc3)nc(N)c2[N+](=O)[O-])C1 (stereo unspecified)	inconclusive [activator, single point]	–
Cc1ccc(C)c(CN2C(=O)c3ccccc3S(=O)c3ccc(C(=O)NCc4ccco4)cc32)c1 (stereo unspecified)	inactive	–
Cc1ccc(NC(=O)Cn2c(=O)n(CCc3ccccc3)c(=O)c3c4c(sc32)CCCC4)cc1C	inconclusive [activator, full curve]	–
CCc1ccc(NC(=O)CNCc2ccc(OC)c(OC)c2)cc1	inactive	–
COc1ccc(NC(=O)/C(Cl)=C(/Cl)S(=O)Cc2ccc(Cl)cc2)cn1 (stereo unspecified)	–	inconclusive: -90.6% [activator]
Cc1ccc([N+](=O)[O-])cc1NC(=O)CN(C(=O)c1ccc(Cl)cc1)C1CCCCC1	inconclusive [activator, single point]	–
O=C1C=C(c2ccccc2)C[C@@H](c2ccc3c(c2)OCO3)C1	active: 20 µM	–
CCc1ccc(NC(=O)CCNS(=O)(=O)c2cccc3nonc23)cc1	inconclusive [activator, partial curve, poor fit]	–
O=C(CCc1ccc(Oc2cc([N+](=O)[O-])cc([N+](=O)[O-])c2)cc1)N1CCCCCC1	inconclusive [activator, single point]	–
CCc1nnc(NC(=O)CSCc2cc(=O)n3nc(C)sc3n2)s1	inconclusive [activator, single point]	–
CC(C)n1c(SCC(=O)N2c3ccccc3Sc3ccccc32)nc2c1c(=O)n(C)c(=O)n2C	inactive	–
CCOC(=S)SCC(=O)Nc1nccs1	active: 22.4 µM	–
Cc1ccc(C(=O)Nc2ccccc2C(=O)N2CC3(C)CC2CC(C)(C)C3)cc1 (stereo unspecified)	inconclusive [activator, single point]	–
O=C(c1csc2c1CCCC2)N1CCN(c2cccc(C(F)(F)F)c2)CC1	inconclusive [activator, single point]	–
Cc1ccc(OCc2ccc(C(=O)Nc3nccs3)o2)cc1	inactive	–
COc1ccc(C(=O)c2ccc(C)cc2)c(OC)c1OC	inconclusive [activator, partial curve]	–

Structure (SMILES)	Potency	growth rescue (activation)
CC(Cc1cccs1)NC(=O)Nc1ccc(Cl)cc1 (stereo unspecified)	active: 22.4 µM	–
COc1ccc(-c2nc3scc(CCNS(=O)(=O)c4cccc(C(C)=O)c4)n3n2)cc1	inconclusive [activator, full curve, poor fit]	–
O=C(C[C@H]1C[C@H](C(=O)N2CCCCC2)[C@@]2(CCc3ccccc3)c3[nH]c4ccc(Cl)cc4c3CCN2C1=O)NCc1ccco1	inconclusive [activator, partial curve]	–
O=C1CCCCC1Nc1ccc(Cl)cc1 (stereo unspecified)	inconclusive [activator, partial curve]	–
COc1ccccc1Nc1nc2ccccc2n2cnnc12	inconclusive [activator, partial curve]	–
CCc1ccc(NC(=O)c2oc3c(c2C)-c2[nH]ncc2CC3)cc1	inconclusive [activator, partial curve]	–
Cc1c(C(=O)Nc2ccc(Cl)cc2)c2ccccn2c1C(=O)c1ccccc1	inconclusive [activator, full curve, poor fit]	–
O=C(Nc1ccccc1-c1ccccc1)c1ccc(Br)o1	active: 22.4 µM	–
COC(=O)c1ccc2nc(-c3ccc(OC)c(OC)c3)c(Cc3ccccc3)n2c1	inconclusive [activator, single point]	–
CCCCOc1ccc(C2c3c(oc4ccccc4c3=O)C(=O)N2c2nc(C)c(C(=O)OCC)s2)cc1OC (stereo unspecified)	inconclusive [activator, partial curve, poor fit]	–
Cc1cccc(-n2ncc3c(Nc4c(C)cc(C)cc4C)ncnc32)c1	inconclusive [activator, single point]	–
Cc1nnc2c3ccccc3nc(N3CCN(c4cccc(Cl)c4)CC3)n12	active: 25.1 µM	–
CCc1[nH]c(=S)c(C#N)c(-c2ccccc2)c1C(=O)OC	inconclusive [activator, single point]	–
COc1ccc(N(CC(=O)N2CCN(c3ccccc3)CC2)S(=O)(=O)c2ccccc2)cc1	inactive	–
Cc1ccc(N2C(=O)C3C4C=CC(CNC(=S)Nc5ccc(F)cc5)(O4)C3C2=O)cc1 (stereo unspecified)	inconclusive [activator, partial curve]	–
CC(C)Nc1nnc(SCC(=O)c2c[nH]c3ccccc23)s1	inconclusive [activator, partial curve]	–
COc1ccc(C(=O)c2cn(Cc3cccc(C)c3)c3cc4c(cc3c2=O)OCCO4)cc1OC	inactive	–
COc1ccc(NC(=O)/C(Cl)=C(/Cl)S(=O)Cc2ccccc2)cn1 (stereo unspecified)	active: 3.55 µM	–
CCN(CC)c1ccc(NC(=O)CC2Oc3ccccc3NC2=O)c(C)c1 (stereo unspecified)	inconclusive [activator, full curve]	–
Cc1cccc(-c2cc3nc(-c4ccccc4)cc(N4CCC5(CC4)OCCO5)n3n2)c1	active: 35.5 µM	–
Cc1ccc(S(=O)(=O)Nc2ccc3c(c2)c(C(=O)OC(C)C)c(C)n3S(=O)(=O)c2ccc(C)cc2)cc1	inconclusive [activator, partial curve]	–
Cc1ccc(CCNC(=O)CN2CCN(Cc3ccc(Cl)cc3)C2=O)cc1	inconclusive [activator, full curve, poor fit]	–
